Hit rate of the full screen: of about 7,900 compounds, about 400 (5.1%) showed an effect of 50% or more. The list shows a part of the results.
The compounds below were run against Parkinson's disease protein 7 (PARK7/DJ1) (human, UniProt Q99497) (assay: primary screen, percent inhibition; read as competition with a fluorescent probe by fluorescence polarization; higher = more effect of the substance). Details: 100 µM.
How it was run: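 Covalent fragments at 100 μM final were incubated 2 h with 0.2 μM PARK7, then 20 nM probe JYQ-107 added for a further 2 h. Fluorescence polarization read at 480/520 nm; relative FP loss versus reference controls gave remaining enzyme activity.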

Parkinson's disease protein 7 (PARK7/DJ1), sequence (Q99497 whole entry, looked up, the tested form may be a part): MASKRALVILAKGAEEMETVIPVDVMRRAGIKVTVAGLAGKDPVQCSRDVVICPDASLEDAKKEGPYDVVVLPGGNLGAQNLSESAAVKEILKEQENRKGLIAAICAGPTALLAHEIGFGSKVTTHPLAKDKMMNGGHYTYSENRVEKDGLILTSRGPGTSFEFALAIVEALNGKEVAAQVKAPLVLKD

Compound	Inhibition % [%]
Cc1nc(S)nc(O)c1C	0.0569
COc1ccc(C(C#N)N2CCN(C(=O)CCl)CC2)cc1 (stereo not drawn)	9.52
O=C(CCl)NC1CCCc2ccccc21 (stereo not drawn)	4.42
C=CC(=O)N1CC(c2ccc(F)cc2)CC1C (stereo not drawn)	6.19
O=C(CCl)N1CCCC2CCCCC21 (stereo not drawn)	14.1
Cc1noc(C)c1B1OC(C)(C)C(C)(C)O1	2.59
NC(=O)C1CCCCN1C(=O)CCl (stereo not drawn)	12.3
C=CC(=O)Nc1cc(C2CC2)nn1-c1ncccn1	33.8
Cc1c(C#N)c(S)nc2c1CCC2	15.1
C=CC(=O)NCc1nc2cc(F)ccc2o1	3.57
O=C(C=Cc1nccs1)N1CCc2ccccc21	14.3
C=CC(=O)N1CCC(Cn2nc(C)cc2C)CC1	1.11
Fc1cccc(F)c1C1=NOC(CCl)C1 (stereo not drawn)	7.37
C=CC(=O)N1CCC(N2CCCS2(=O)=O)CC1	8.7
Cc1ccsc1-c1nnc(NC(=O)CCl)o1	10.8
O=C(CCl)c1ccc(O)c(O)c1	75.1
CC1(C)OB(c2ccc(S(C)(=O)=O)cc2Cl)OC1(C)C	4.5
C=CC(=O)N1CCN(CC(F)(F)F)C(=O)C1	8.9
CN(CC1(O)CCCC1)c1ccc(C#N)nc1	6.66
C=CC(=O)NCCn1ccnc1C	19.6
Cc1oc(-c2ccccc2)nc1CN1C(=O)CCC1=O	1.27
CC1(C)OB(c2ccc3c(c2)OCO3)OC1(C)C	3.89
N#Cc1nccnc1Oc1ccc(N)cc1	9.92
N#Cc1ncn(CC(=O)Nc2cc(F)cc(F)c2)n1	-3.2
C=CC(=O)N1CCC2(CC1)OCCc1ccccc12	3.72
CC1(C)OB(c2ccc(Cl)cc2)OC1(C)C	4.5

Compound	Inhibition % [%]
C=CC(=O)NCC1C2Cc3ccccc3C12 (stereo not drawn)	22.4
N#Cc1ccc(N2CCOCC2)cn1	2.34
Cc1ccc(C(=O)CCl)cc1	32.3
CCCOc1ccc(S(=O)(=O)n2cccn2)cc1C	2.9
Cn1cc(C=C(C#N)C(=O)NCCc2ccccc2)cn1	9.69
Cc1ccc(NC(=O)CN(C)C(=O)CCl)cc1	96.5
O=C(O)C1CCN(C(=O)C=Cc2ccccc2F)CC1	7.3
C1CCCC2(CC1)CO2	5.37
O=C1OCCC1Sc1nnc(-c2ccncc2)o1 (stereo not drawn)	6.02
COCc1ccc(SC(=O)N(C)C)cc1	7.64
O=C(Oc1ccc2c(c1)OCO2)N1CCOCC1	4.01
COc1ccc(OCCS)cc1	3.61
N#Cc1cc(N2CC(O)CC2c2ccc(F)cc2)ccn1 (stereo not drawn)	5.08
O=c1oc(-c2ccc(F)cc2)nn1CN1CCOCC1	5.48
C=CC(=O)N1CCc2cc(OC)c(Cl)cc2C1	1.32
CC(C)NC(=O)C(C#N)=Cc1cccs1	4.15
Cn1ncc(C(=O)CCl)n1	95.3
C=CC(=O)NCC1CCCc2cc(OC)ccc21 (stereo not drawn)	3.52
Cc1cc(OC(F)F)ccc1B1OC(C)(C)C(C)(C)O1	3.76
C=CC(=O)N1CCN(c2ccc(Cl)cn2)CC1	6.88
O=C(NCc1ccccn1)N1CCCCC1C1OCCO1 (stereo not drawn)	10.7
CC(C)NC(=O)N1CCCC(C2OCCO2)C1 (stereo not drawn)	3.8
Cn1cc(NC(=O)CN2CCSC2=O)cn1	71.6
CC(C)N1C2CCC1CN(c1ccc(C#N)nc1)CC2 (stereo not drawn)	3.5
COc1ccc(NS(=O)(=O)c2ccc(S(=O)(=O)F)cc2)cn1	100
O=C1OCCC1N1CC=C(c2c[nH]c3ccccc23)CC1 (stereo not drawn)	4.4

Compound	Inhibition % [%]
N#Cc1ccc(C2OCCO2)o1	3.58
Cn1cc(B2OC(C)(C)C(C)(C)O2)c(C2CC2)n1	7.49
O=C1CCC(=O)N1CCSc1cccc(Cl)c1	8.82
CC(C)(C)N(Cc1ccccc1)C(=O)CCl	9.42
c1cc(OCC2CO2)c2cc[nH]c2c1 (stereo not drawn)	-2.42
O=S1(=O)CCCN1c1cccc(NCc2ccccc2B(O)O)c1	9.49
O=C(O)C1CCCN1C(=O)C=Cc1cc2ccccc2o1 (stereo not drawn)	15
C=CC(=O)N1CC(C)(C)C1c1nccn1-c1cccc(F)c1 (stereo not drawn)	9.73
C=CC(=O)N1CCOC(C#N)C1 (stereo not drawn)	7.14
Cc1cc(C)n(-c2cccc(B(O)O)c2)n1	-1.1
O=c1oc(-c2ccccc2)nn1CN1CCCSCC1	33.1
C=CC(=O)N1CCCc2c(OCC(N)=O)cccc21	32
C=CC(=O)N1CCSC(C(C)C)C1 (stereo not drawn)	7.2
C=CC(=O)NC1(c2ccc(F)c(F)c2)CC1	7.92
C=CC(=O)NCCN1CCCC1=O	3.27
C=CCNC(=O)CN(C#N)c1ccccc1	3.22
Cc1ncc(C=CC(=O)N2CCCC(N)C2)s1.Cl.Cl (stereo not drawn)	12
Cl.O=C(O)C1CCN(C(=O)C=Cc2ccc(F)cc2)C1 (stereo not drawn)	2.01
CC1(C)OB(c2ccc(Cl)o2)OC1(C)C	-2.01
C=CC(=O)N1CCS[C@H](C)C1	3.07
Cc1cnc(S(=O)(=O)F)nc1	33.7
C=CC(=O)N1CCS(=O)(=O)C(C)C1 (stereo not drawn)	4.2
N#CC(c1ccc(F)cc1)N1CCN(C(=O)CCl)CC1 (stereo not drawn)	6.3
N#Cc1cc(Oc2ccc(CC(=O)O)cc2)ccn1	3.5
C=CC(=O)NC1=NN(Cc2ccccc2)C(C)C1 (stereo not drawn)	10.9
N#Cc1c(S)nc2c(c1-c1ccco1)CCC2	1.97

Compound	Inhibition % [%]
COCC(C)NC(=O)C(C#N)=Cc1cccc(F)c1F (stereo not drawn)	-1.14
C=CC(=O)N1CCSCC(C)C1 (stereo not drawn)	8.62
COc1cc(NC(=O)CCl)cc(OC)c1OC	7.91
C=CC(=O)N1CCCC1c1cccc(C)n1 (stereo not drawn)	13
N#CC(=Cc1c(F)cccc1F)C(N)=O	6.29
CC1(C)OB(c2cnc3ccnn3c2)OC1(C)C	5.87
CC(C)(O)c1ccc(B2OC(C)(C)C(C)(C)O2)cc1	3.89
OC1(C2CO2)CCOCC1 (stereo not drawn)	7.63
Cc1cccc(N2CCN(C(=O)n3ccnc3)CC2)c1C	6.87
N#Cc1ncn(CCC(=O)Nc2c(Cl)cccc2Cl)n1	9.82
CC1CC(NC(C)c2ccccc2Cl)C(=O)O1 (stereo not drawn)	3.72
C=CC(=O)NC1CCOC2(CCSC2)C1 (stereo not drawn)	6.26
Cl.O=C(CCl)N1CCN(c2cccc(Cl)c2)CC1	44.3
Cc1nc(C=CC(=O)N2CCC(N)CC2C)cs1 (stereo not drawn)	11
O=C(O)Cc1ccc(OCC2CO2)cc1 (stereo not drawn)	3.87
C=C(C)c1nc(C#N)c(NCc2ccccc2)o1	9.08
COc1cc(C=C(C#N)C(N)=O)cc(Cl)c1OC(C)C	7.72
COc1ccc(OC)c(C(=O)CCl)c1	11.8
CC1COCCN1Cn1nc(-c2ccccc2)oc1=O (stereo not drawn)	1.98
Cn1nncc1C(=O)CCl	82.2
C=CC(=O)N1CCCC(C2CCOCC2)C1 (stereo not drawn)	8.4
O=C(CCl)c1ccc(CC(=O)N2CCOCC2)s1	7.37
CN(C)c1ccc(C=C(C#N)C(N)=O)cc1	5.91
C=CC(=O)N1CCC(C(=O)O)(c2cccc(C)c2)CC1	0.629
Cc1cc(C(=O)CCl)c(C)n1-c1ccc2c(c1)OCCO2	63.9
CS(=O)(=O)OC1CCOC2(CCC2)C1 (stereo not drawn)	9.05

Compound	Inhibition % [%]
CC1CC(Sc2nnc(-c3cccs3)o2)C(=O)O1 (stereo not drawn)	18
Cc1ncc(C=CC(=O)N2CCC[C@@H]2C(=O)O)s1	4.11
O=C(NC1CCCC1)c1ccc(N2C(=O)CCC2=O)cc1	2.85
C=CC(=O)NC1(c2noc(CC)n2)CCCC1	7.72
N#Cc1cc(C(=O)O)c[nH]1	4.58
CN(Cc1cc(C#N)ccc1F)C(=O)CCl	50.3
C=CC(=O)Nc1ccc(OC2CCCC2)nc1	7.53
C=CC(=O)NC(c1cccc(C(F)(F)F)c1)c1nnc[nH]1 (stereo not drawn)	28.1
N#Cc1nn[nH]c1Cl	7.91
CC(C)NC(=O)C(C#N)=Cc1ccc(OC(C)C)cc1	4.04
O=C(NCC1CCS(=O)(=O)CC1)c1cccnc1S	-0.307
Cc1nc(C=CC(=O)N2CCc3sccc3C2)cs1	4.01
N#Cc1ccc(N2CCCC(C(N)=O)C2)cn1 (stereo not drawn)	6.47
Cc1cc(C)n(CC2CN(C3CC(C)OC3=O)CCO2)n1 (stereo not drawn)	5.93
O=S(=O)(c1ccc(Cl)cc1)n1cccc1	2.87
N#Cc1ccc(C(=O)O)[nH]1	7.43
C=CC(=O)NC1c2ccccc2CCC1N(C)C (stereo not drawn)	6.75
N#Cc1nn(C2CCCCC2O)c2ccccc12 (stereo not drawn)	0.835
Cc1ccc(S(=O)(=O)OC2CCS(=O)(=O)C2)cc1 (stereo not drawn)	-6.46
Cc1cc(NC(=O)c2c[nH]c(C#N)c2)ccc1OCCO	4.15
C=CC(=O)NC1CC2CCC1C2 (stereo not drawn)	3.12
C=CC(=O)N1CCOc2ccccc21	9.1
